“And” between values parts separate entries of the source, which are not always exact repeats. Equal values may be shown once. Hit rate of the full screen: of about 230,000 compounds, about 3,600 (1.6%) were called active. The inconclusive results got no clear call from the source; some entries with a clear call stand among them for comparison. The call rests on the fitted dose curve; in most records, active means well fitted inhibition curve with a large enough effect (not every such curve was filed as active); inconclusive means small, poorly fitted or top-dose-only effect, or another doubt; inactive means no such curve, though single readings can be large or run the other way. Potencies beside an inconclusive call are fits to weak or partial responses and may not hold up.
Target: Lysine-specific demethylase 4E (Homo sapiens) (UniProt B2RXH2)
Assay: qHTS Assay for Inhibitors of Human Jumonji Domain Containing 2E (JMJD2E)
Details: JMJD2E catalytic domain, FDH-coupled NADH fluorescence (FDH is formaldehyde dehydrogenase); series mostly up to 57.1 µM; activity change, negative = inhibition: at the top concentration
Further: nearly all actives have a fitted effect of over 50% in size.
Potency means the concentration at half of the fitted maximal effect; tags describe the fitted curve by direction and shape.
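Wherever activity change, negative = inhibition is given: 0% = wells with enzyme and -100% = buffer wells without enzyme.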

UniProt B2RXH2, sequence (B2RXH2 whole entry, looked up, the tested form may be a part): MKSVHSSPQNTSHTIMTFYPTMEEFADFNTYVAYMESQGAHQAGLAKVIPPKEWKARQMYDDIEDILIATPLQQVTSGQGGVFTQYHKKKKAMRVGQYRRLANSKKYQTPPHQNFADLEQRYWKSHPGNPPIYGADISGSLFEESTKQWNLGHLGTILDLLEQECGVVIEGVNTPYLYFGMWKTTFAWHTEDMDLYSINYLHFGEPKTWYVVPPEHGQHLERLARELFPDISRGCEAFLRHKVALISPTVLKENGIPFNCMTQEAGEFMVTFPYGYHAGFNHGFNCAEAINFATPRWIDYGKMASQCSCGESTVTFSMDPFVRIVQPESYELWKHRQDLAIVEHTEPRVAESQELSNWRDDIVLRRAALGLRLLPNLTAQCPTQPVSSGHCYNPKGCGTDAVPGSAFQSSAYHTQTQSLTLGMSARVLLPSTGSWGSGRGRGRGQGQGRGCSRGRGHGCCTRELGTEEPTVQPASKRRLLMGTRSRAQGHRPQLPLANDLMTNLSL

Compound	Potency	activity change, negative = inhibition
Cn1c(=O)c2cc3ccccc3nc2n(C)c1=O	inconclusive: 12.6 µM [inhibitor, partial curve]	–
COC(=O)Nc1sc2c(c1C(=O)NCc1ccco1)CCC2	–	inactive: -4.54%
CC1(C)Nc2ccccc2C(=O)N1NC(=O)c1ccccc1	inconclusive: 28.2 µM [inhibitor, partial curve]	–
COc1ccc(/C=N/NC(=O)c2nn(-c3ccc(C)c(C)c3)c(=O)c3ccccc23)cc1	inconclusive: 39.8 µM [inhibitor, single point]	–
COC(=O)c1oc2ccc(OC)cc2c1N	inconclusive: 6.31 µM [inhibitor, single point]	–
CCOCCCNC(=O)CN1C(=O)CSc2cc(S(=O)(=O)N3CCCCCC3)ccc21	–	inactive: -15.2%
S=c1[nH]nc(-c2cccc(Cl)c2)n1/N=C/c1ccco1	–	inactive: -19.5%
CCCN(Cc1cc2cc(OC)ccc2[nH]c1=O)C(=O)c1ccco1	inconclusive: 28.2 µM [inhibitor, partial curve]	–
O=C1c2cccc3cccc(c23)C(=O)N1CC1CCN(CC(O)COc2ccc3ccccc3c2)CC1 (configuration not stated)	inconclusive: 39.8 µM [inhibitor, single point]	–
CN(C)c1ccc(/C=C/c2ccc3ccccc3n2)cc1	active: 22.4 µM	–
C=CCOc1cccc(C2C(C(=O)c3ccco3)=C(O)C(=O)N2CCN(CC)CC)c1 (configuration not stated)	inconclusive: 25.1 µM [inhibitor, single point]	–
CC1(OC(=O)c2cccs2)C(=O)C=C2C=C(c3ccc(C#N)cc3)OC=C2C1=O (configuration not stated)	inactive	–
COCCN(C(=S)Nc1cccc(C)c1)C(C)c1cccnc1 (configuration not stated)	–	inactive: -3.62%
O=C(Nc1ccc2c(c1)C(=O)N(CC1CCCO1)C2=O)c1ccccc1Br (configuration not stated)	inconclusive: 28.2 µM [inhibitor, partial curve]	–
COc1ccc(OC)c(Nc2nc(-c3sc(NC(=O)CC(C)C)nc3C)cs2)c1	inconclusive: 35.5 µM [inhibitor, single point]	–
COc1ccc(C(CC(=O)N2CCCC(C)C2)c2c(OC)cc(OC)c3ccc(=O)oc23)cc1 (configuration not stated)	inconclusive: 28.2 µM [inhibitor, partial curve]	–
CCCn1c(C)cc(/C=C(\C#N)C(=O)OCC(=O)Nc2ccc(OC)c(Cl)c2)c1C	inconclusive: 8.91 µM [inhibitor, single point]	–
CC1=NOC(=O)/C1=C\c1ccc(-c2ccc(Br)cc2)o1	inconclusive: 10 µM [inhibitor, partial curve]	–
O=S1(=O)C=C(Sc2nc3ccccc3s2)c2ccccc21	inconclusive: 39.8 µM [inhibitor, single point]	–
S=c1[nH]ccn1-c1c(Cl)cccc1Cl	–	inactive: 2.46%
O=C(Nc1cccc(C(F)(F)F)c1)/C(=C\c1ccco1)NC(=O)c1cccs1	inconclusive: 39.8 µM [inhibitor, single point]	–
CN1CCN(c2ccc([N+](=O)[O-])cc2/C=N/NC(=O)c2cccc([N+](=O)[O-])c2)CC1	–	inactive: -4.76%
CCN(CC)CC(=O)n1c2c(c3ccccc31)CCCC2	inconclusive: 39.8 µM [inhibitor, single point]	–

Compound	Potency	activity change, negative = inhibition
COc1cc(/C=C/C(=O)OCC(=O)N2CCOCC2)ccc1OCC#N	inconclusive: 22.4 µM [inhibitor, partial curve]	–
O=C(Nc1ccc(-c2ccc3nncn3n2)cc1)C1CCCC1	inconclusive: 39.8 µM [inhibitor, single point]	–
CCOC(=O)c1ccc(NC(=O)Cn2c(-c3nonc3N)nc3ccccc32)cc1	–	inactive: 4.25%
Cc1ccc2nc(-c3ccc(NC(=O)CN(C)S(=O)(=O)c4ccccc4)cc3)sc2c1	inconclusive: 3.16 µM [inhibitor, partial curve]	–
CC1CCc2[nH]nc(C(=O)O)c2C1 (configuration not stated)	–	inactive: 1.8%
Nc1c(C(=O)NCCN2CCOCC2)c2nc3ccccc3nc2n1-c1ccc2c(c1)OCO2	inconclusive: 28.2 µM [inhibitor, partial curve]	–
COCc1cc(C)nc(SCC(=O)c2ccc(O)c(O)c2)c1C#N	active: 28.2 µM	–
COc1ccc(CC(=O)Nc2ccc(OC(C)=O)cc2C(=O)O)cc1	inconclusive: 31.6 µM [inhibitor, single point]	–
O=C(Nc1ccc2c(c1)C(=O)NC2=O)c1ccc(Cl)s1	inconclusive: 31.6 µM [inhibitor, single point]	–
O=C1ON=C(c2ccccc2)/C1=C/c1ccc(OS(=O)(=O)c2ccccc2)cc1	inconclusive: 25.1 µM [inhibitor, single point]	–
Cc1nccn1S(=O)(=O)c1cc([N+](=O)[O-])ccc1Cl	–	inactive: 5.77%
COC(=O)CCCC1=CC2=C(c3ccccc3)C(=O)C(C)(OC(=O)C3CCCC3)C(=O)C2=CN1CCc1c[nH]c2ccccc12 (configuration not stated)	inconclusive: 20 µM [inhibitor, partial curve]	–
CCN1N=C(c2ccccc2)Cn2c1nc1ccccc12	inconclusive: 28.2 µM [inhibitor, partial curve]	–
CC(C)(C)NC(=O)NC(=O)COC(=O)Cc1ccc(Cl)cc1Cl	inconclusive: 31.6 µM [inhibitor, partial curve]	–
Cc1cc(=O)oc2cc(OCC(=O)OCC(=O)Nc3ccc(C(C)C)cc3)ccc12	inconclusive: 35.5 µM [inhibitor, single point]	–
Cc1ccc(-c2nc(CN(CC3CCC3)CC3CCCO3)c(C)o2)s1 (configuration not stated)	inconclusive: 25.1 µM [inhibitor, partial curve]	–
COc1cc(C(=O)OC(C)C(=O)N2CCc3ccccc3C2)ccc1OCC(=O)N1CCOCC1 (configuration not stated)	inconclusive: 39.8 µM [inhibitor, single point]	–
COCC(=O)N(Cc1cc2cc(OC)ccc2[nH]c1=O)c1ccc(C)cc1	inconclusive: 28.2 µM [inhibitor, partial curve]	–
CCc1cc(C(=O)N/N=C/c2c(C)[nH]c3ccccc23)cs1	inconclusive: 35.5 µM [inhibitor, single point]	–
O=C(Nc1nnc(-c2ccc(F)cc2)o1)c1cccc([N+](=O)[O-])c1	inconclusive: 39.8 µM [inhibitor, single point]	–
CCN1CCC[C@H]1CNC(=O)c1c(O)c(Cl)cc(Cl)c1OC	inconclusive: 31.6 µM [inhibitor, partial curve] and inconclusive: 25.1 µM [inhibitor, partial curve] and inconclusive: 39.8 µM [inhibitor, single point]	–
COc1ccc(NC(=O)CSc2nncn2C)cc1OC	–	inactive: 3.94%
O=C(/C=C/c1ccc2c(c1)OCO2)N1CCOCC1	inconclusive: 35.5 µM [inhibitor, single point]	–

Compound	Potency	activity change, negative = inhibition
NCCC[C@@H](CC(=O)N[C@@H]1CCNC[C@H]1C(=O)N[C@H](CC(=O)N[C@@H](CCC(=O)O)CC(=O)O)Cc1ccccc1)NC(=O)C[C@H](CO)NC(=O)[C@@H]1CCCC[C@H]1N	inconclusive: 7.08 µM [inhibitor, single point]	–
CCc1ccc(-c2cc(C(=O)Nn3cnnc3)c3ccccc3n2)cc1	inconclusive: 39.8 µM [inhibitor, single point]	–
O=C(Nc1cccc(F)c1)c1ccc(S(=O)(=O)NCC2CCCO2)cc1 (configuration not stated)	–	inactive: -2.87%
COc1cc2c(cc1NC(=S)Nc1cccc(C(F)(F)F)c1)oc1ccccc12	inconclusive: 20 µM [inhibitor, partial curve]	–
COc1ccc(-c2cc(=O)c3c(O)c(OC)c(O[C@@H]4OC(COC5OC(C)C(O)C(O)[C@@H]5O)C(O)C(O)C4O)cc3o2)cc1 (some centres not stated)	inconclusive: 39.8 µM [inhibitor, single point]	–
COC(=O)Cc1sc(-c2ccccn2)nc1-c1ccccc1	inconclusive: 25.1 µM [inhibitor, single point]	–
O=C(Oc1ccc2ccccc2c1)c1ccco1	–	inactive: -7.11%
O=C(Cc1cccs1)Nc1cccc(-c2nnc(-c3ccco3)o2)c1	inconclusive: 28.2 µM [inhibitor, partial curve]	–
O=C(O)c1cc([N+](=O)[O-])ccc1N1CCCCC1	–	inactive: 6.15%
COc1ccc(-c2c(C)oc3c(CN4CCOCC4)c(O)ccc3c2=O)cc1	inconclusive: 31.6 µM [inhibitor, partial curve]	–
Cc1cc(-c2ccccc2)nc(N(C)N)c1S(C)(=O)=O	inconclusive: 35.5 µM [inhibitor, single point]	–
Cc1cc(/C=N/Nc2nc(N3CCOCC3)nc(N3CCOCC3)n2)c(C)n1-c1ccccc1	active: 35.5 µM	–
O=C1NNC(c2ccccc2)=N/C1=C\c1ccccc1Cl	–	inactive: -3.33%
COC(=O)c1cc(NC(=O)C2CCCN(S(=O)(=O)c3c(C)n[nH]c3C)C2)cc(C(=O)OC)c1 (configuration not stated)	–	inactive: -6.17%
CCOc1cc(C(N)=O)cc(Br)c1OCc1ccccc1	–	inactive: 1.36%
CCOC(=O)c1c(C)nc(-c2ccccc2)nc1N	inconclusive: 28.2 µM [inhibitor, single point]	–
Cc1c(Cl)c(C(=O)NNC(=S)Nc2ccc(F)cc2)nn1C	active: 20 µM	–
COc1ccc(Cn2c(O)c(C=Nc3ccc(C)cc3)c3ccccc3c2=O)cc1	inconclusive: 39.8 µM [inhibitor, single point]	–
CN(CC(=O)NC1CCCCCC1)S(=O)(=O)c1ccc2c(c1)n(C)c(=O)c(=O)n2C	inconclusive: 28.2 µM [inhibitor, partial curve]	–
COc1cc(OC)c2c(-c3ccccc3)cc(=O)oc2c1C(CCN1CCN(c2ccccc2)CC1)c1ccc(N(C)C)cc1 (configuration not stated)	–	inactive: -2.48%
CCOC(=O)N1CCN(Cc2c(O)ccc3ccccc23)CC1	inconclusive: 35.5 µM [inhibitor, partial curve]	–

Reference: PubChem BioAssay AID2147 (National Center for Advancing Translational Sciences (NCATS), 2009)
